From the supplement of paper PMC10037445
Over roughly 2,900 compounds, “IRF Lucia reporter activity, fold change vs agonist alone” has its median near 0.9; the highest 2% begin near 2.8. The list shows a part of the results.

Columns and labels:
RAW-Dual [1] = assay: IRF Lucia reporter activity, fold change vs agonist alone; cytotoxicity flag (confluency mask): cytotoxic (confluency <70% of control); higher = enhanced IRF activity
Method in brief: (§1)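 RAW-Dual macrophages (50,000 cells/well in DMEM, 384-well plates) received 50 nL of library stock by pin tool, then a PRR agonist 1 h later, and were kept at 37 °C, 5% CO2. After 20 hours, supernatant was read for IRF by QuantiLuc luminescence and for NF-κB by QuantiBlue absorbance at 620 nm. Reporter activity is fold change over agonist-alone wells. Cytotoxic wells had IncuCyte confluency below 70% of agonist controls in both mask sets.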

RAW-Dual [2] = assay: IRF Lucia reporter activity, fold change vs agonist alone; cytotoxicity flag (confluency mask): not cytotoxic; higher = enhanced IRF activity
Method in brief: as §1

RAW-Dual [3] = assay: IRF Lucia reporter activity, fold change vs agonist alone; higher = enhanced IRF activity; conditions: agonist: MPLA (TLR4) […]
Method in brief: as §1

[4] = agonist: 3'3'-cGAMP (STING) 10 ug/mL
[5] = library stock concentration (final ~1000-fold dilution): 10 mM, cytotoxicity flag (confluency mask): not cytotoxic
[6] = library stock concentration (final ~1000-fold dilution): 10 mM, cytotoxicity flag (confluency mask): cytotoxic (confluency <70% of control)
[7] = library stock concentration (final ~1000-fold dilution): 2 mM, cytotoxicity flag (confluency mask): not cytotoxic

SMILES: Cc1c[nH]c2nc(Nc3ccc(N4CCN(C)CC4)c(F)c3)nc(-c3cccc(CC#N)c3)c12 (library stock concentration (final ~1000-fold dilution): 10 mM)
- IRF Lucia reporter activity (RAW-Dual [1]; [4]): 0.00805
- IRF Lucia reporter activity (RAW-Dual [1]; agonist: LPS (TLR4) 0.1 ug/mL): 0.0101

SMILES: COc1cnc(NS(=O)(=O)c2ccc(N)cc2)nc1 (library stock concentration (final ~1000-fold dilution): 10 mM)
- IRF Lucia reporter activity (RAW-Dual [2]; [4]): 1.08
- IRF Lucia reporter activity (RAW-Dual [2]; agonist: LPS (TLR4) 0.1 ug/mL): 0.941

SMILES: COc1cnc(NS(=O)(=O)c2ccc(N)cc2)nc1
- IRF Lucia reporter activity (RAW-Dual [3]; [5]): 0.961

SMILES: C=CC(=O)N1CCN(CCCn2c(=O)c(-c3c(Cl)c(OC)cc(OC)c3Cl)cc3cnc(NC)nc32)CC1 (library stock concentration (final ~1000-fold dilution): 10 mM)
- IRF Lucia reporter activity (RAW-Dual [2]; [4]): 0.583
- IRF Lucia reporter activity (RAW-Dual [2]; agonist: LPS (TLR4) 0.1 ug/mL): 0.664

SMILES: COc1cc(C2c3cc4c(cc3C(OC3OC5COC(C)OC5C(O)C3O)C3COC(=O)C23)OCO4)cc(OC)c1O (stereo not given)
- IRF Lucia reporter activity (RAW-Dual [3]; [5]): 0.943

SMILES: COc1cc(C2c3cc4c(cc3C(OC3OC5COC(C)OC5C(O)C3O)C3COC(=O)C23)OCO4)cc(OC)c1O (stereo not given) (library stock concentration (final ~1000-fold dilution): 10 mM)
- IRF Lucia reporter activity (RAW-Dual [2]; [4]): 0.618
- IRF Lucia reporter activity (RAW-Dual [2]; agonist: LPS (TLR4) 0.1 ug/mL): 0.92

SMILES: COc1ccc(C2CC(=O)c3c(O)cc(O)cc3O2)cc1O (stereo not given) (library stock concentration (final ~1000-fold dilution): 10 mM)
- IRF Lucia reporter activity (RAW-Dual [2]; [4]): 0.902
- IRF Lucia reporter activity (RAW-Dual [2]; agonist: LPS (TLR4) 0.1 ug/mL): 0.842

SMILES: COc1ccc(C2CC(=O)c3c(O)cc(O)cc3O2)cc1O (stereo not given)
- IRF Lucia reporter activity (RAW-Dual [3]; [5]): 0.881

SMILES: CC#CC(=O)N1CCCC1c1nc(-c2ccc(C(=O)Nc3ccccn3)cc2)c2c(N)nccn12 (stereo not given) (library stock concentration (final ~1000-fold dilution): 10 mM)
- IRF Lucia reporter activity (RAW-Dual [2]; [4]): 0.499
- IRF Lucia reporter activity (RAW-Dual [2]; agonist: LPS (TLR4) 0.1 ug/mL): 0.827

SMILES: CC(C)c1cc(C(=O)N2Cc3ccc(CN4CCN(C)CC4)cc3C2)c(O)cc1O
- IRF Lucia reporter activity (RAW-Dual [3]; [6]): 2.27

SMILES: CC(C)c1cc(C(=O)N2Cc3ccc(CN4CCN(C)CC4)cc3C2)c(O)cc1O (library stock concentration (final ~1000-fold dilution): 10 mM)
- IRF Lucia reporter activity (RAW-Dual [1]; [4]): 0.851
- IRF Lucia reporter activity (RAW-Dual [1]; agonist: LPS (TLR4) 0.1 ug/mL): 1.03

SMILES: CN1CCC(COc2cnc(-c3cccc(Cn4nc(-c5cccc(C#N)c5)ccc4=O)c3)nc2)CC1
- IRF Lucia reporter activity (RAW-Dual [3]; [5]): 1.37

SMILES: CN1CCC(COc2cnc(-c3cccc(Cn4nc(-c5cccc(C#N)c5)ccc4=O)c3)nc2)CC1 (library stock concentration (final ~1000-fold dilution): 10 mM)
- IRF Lucia reporter activity (RAW-Dual [2]; [4]): 0.676
- IRF Lucia reporter activity (RAW-Dual [2]; agonist: LPS (TLR4) 0.1 ug/mL): 3.96

SMILES: CCOC(=O)C1=C[C@]2(CC)CCCN3CCc4c(n1c1ccccc41)[C@@H]32 (library stock concentration (final ~1000-fold dilution): 10 mM)
- IRF Lucia reporter activity (RAW-Dual [2]; [4]): 1.11
- IRF Lucia reporter activity (RAW-Dual [2]; agonist: LPS (TLR4) 0.1 ug/mL): 1.39

SMILES: Cn1nc(-c2cnc(N)c(-c3ccc(C(N)=O)c(F)c3)n2)nc1C1(c2ccccc2)CC1 (library stock concentration (final ~1000-fold dilution): 10 mM)
- IRF Lucia reporter activity (RAW-Dual [2]; [4]): 0.296
- IRF Lucia reporter activity (RAW-Dual [2]; agonist: LPS (TLR4) 0.1 ug/mL): 0.7

SMILES: CC1Oc2cc(cnc2N)-c2c(nn(C)c2C#N)CN(C)C(=O)c2ccc(F)cc21 (stereo not given)
- IRF Lucia reporter activity (RAW-Dual [3]; [5]): 1.15

SMILES: CC1Oc2cc(cnc2N)-c2c(nn(C)c2C#N)CN(C)C(=O)c2ccc(F)cc21 (stereo not given) (library stock concentration (final ~1000-fold dilution): 10 mM)
- IRF Lucia reporter activity (RAW-Dual [2]; [4]): 1.1
- IRF Lucia reporter activity (RAW-Dual [2]; agonist: LPS (TLR4) 0.1 ug/mL): 1.15

SMILES: COc1cc(OCc2cccc(-c3ccccc3)c2C)cc(OC)c1CN1CCCCC1C(=O)O (stereo not given) (library stock concentration (final ~1000-fold dilution): 10 mM)
- IRF Lucia reporter activity (RAW-Dual [1]; [4]): 0.386
- IRF Lucia reporter activity (RAW-Dual [1]; agonist: LPS (TLR4) 0.1 ug/mL): 2.67

SMILES: Cl.O=C1c2cccc3c2C(CCC3)CN1C1CN2CCC1CC2 (stereo not given) (library stock concentration (final ~1000-fold dilution): 10 mM water)
- IRF Lucia reporter activity (RAW-Dual [2]; [4]): 0.725
- IRF Lucia reporter activity (RAW-Dual [2]; agonist: LPS (TLR4) 0.1 ug/mL): 0.832

SMILES: Cl.O=C1c2cccc3c2C(CCC3)CN1C1CN2CCC1CC2 (stereo not given)
- IRF Lucia reporter activity (RAW-Dual [3]; library stock concentration (final ~1000-fold dilution): 10 mM water, cytotoxicity flag (confluency mask): not cytotoxic): 1.26

SMILES: C=CC(=O)Nc1cc(N2CCN(CC)CC2)ccc1Nc1cc(N(C)C(=O)Nc2c(Cl)c(OC)cc(OC)c2Cl)ncn1 (library stock concentration (final ~1000-fold dilution): 10 mM)
- IRF Lucia reporter activity (RAW-Dual [2]; [4]): 0.0728
- IRF Lucia reporter activity (RAW-Dual [2]; agonist: LPS (TLR4) 0.1 ug/mL): 0.31

SMILES: O=C(N/N=C/c1c(O)ccc2ccccc12)c1ccncc1 (library stock concentration (final ~1000-fold dilution): 10 mM)
- IRF Lucia reporter activity (RAW-Dual [2]; [4]): 0.957
- IRF Lucia reporter activity (RAW-Dual [2]; agonist: LPS (TLR4) 0.1 ug/mL): 1.35

SMILES: O=C(N/N=C/c1c(O)ccc2ccccc12)c1ccncc1
- IRF Lucia reporter activity (RAW-Dual [3]; [5]): 1.51

SMILES: CNC1CN(c2ccc3c(=O)c(C(=O)O)cn(-c4nccs4)c3n2)CC1OC.Cl (stereo not given)
- IRF Lucia reporter activity (RAW-Dual [3]; [7]): 1.31

SMILES: CNC1CN(c2ccc3c(=O)c(C(=O)O)cn(-c4nccs4)c3n2)CC1OC.Cl (stereo not given) (library stock concentration (final ~1000-fold dilution): 2 mM)
- IRF Lucia reporter activity (RAW-Dual [2]; [4]): 0.426
- IRF Lucia reporter activity (RAW-Dual [2]; agonist: LPS (TLR4) 0.1 ug/mL): 0.949

SMILES: CN(C)C/C=C/C(=O)Nc1ccc(C(=O)Nc2cccc(Nc3ncc(Cl)c(-c4c[nH]c5ccccc45)n3)c2)cc1.Cl.Cl (library stock concentration (final ~1000-fold dilution): 10 mM)
- IRF Lucia reporter activity (RAW-Dual [1]; [4]): 0.00865
- IRF Lucia reporter activity (RAW-Dual [1]; agonist: LPS (TLR4) 0.1 ug/mL): 0.0152

SMILES: CN(C)C/C=C/C(=O)Nc1ccc(C(=O)Nc2cccc(Nc3ncc(Cl)c(-c4c[nH]c5ccccc45)n3)c2)cc1.Cl.Cl
- IRF Lucia reporter activity (RAW-Dual [3]; [6]): 0.0174

SMILES: Cc1coc2c1C(=O)C(=O)c1c-2ccc2c(C)cccc12 (library stock concentration (final ~1000-fold dilution): 10 mM)
- IRF Lucia reporter activity (RAW-Dual [2]; [4]): 0.767
- IRF Lucia reporter activity (RAW-Dual [2]; agonist: LPS (TLR4) 0.1 ug/mL): 0.764

SMILES: Cc1coc2c1C(=O)C(=O)c1c-2ccc2c(C)cccc12
- IRF Lucia reporter activity (RAW-Dual [3]; [5]): 0.749

SMILES: Cn1cc(-c2cnn3c(N)c(Br)c(C4CCCNC4)nc23)cn1 (stereo not given)
- IRF Lucia reporter activity (RAW-Dual [3]; [7]): 1.14

SMILES: Cn1cc(-c2cnn3c(N)c(Br)c(C4CCCNC4)nc23)cn1 (stereo not given) (library stock concentration (final ~1000-fold dilution): 2 mM)
- IRF Lucia reporter activity (RAW-Dual [2]; [4]): 0.493
- IRF Lucia reporter activity (RAW-Dual [2]; agonist: LPS (TLR4) 0.1 ug/mL): 0.852

SMILES: COc1ccc(-c2cc3c(C)nc(N)nc3n(C3CCC(OCCO)CC3)c2=O)cn1 (stereo not given)
- IRF Lucia reporter activity (RAW-Dual [3]; [6]): 0.387

SMILES: COc1ccc(-c2cc3c(C)nc(N)nc3n(C3CCC(OCCO)CC3)c2=O)cn1 (stereo not given) (library stock concentration (final ~1000-fold dilution): 10 mM)
- IRF Lucia reporter activity (RAW-Dual [1]; [4]): 0.282
- IRF Lucia reporter activity (RAW-Dual [1]; agonist: LPS (TLR4) 0.1 ug/mL): 0.508

SMILES: CCC(C)SSc1ncc[nH]1 (stereo not given) (library stock concentration (final ~1000-fold dilution): 10 mM)
- IRF Lucia reporter activity (RAW-Dual [2]; [4]): 0.0255
- IRF Lucia reporter activity (RAW-Dual [2]; agonist: LPS (TLR4) 0.1 ug/mL): 0.263
